The RNAGym collection of RNA variant scans (doi:10.7554/elife.90254)
Read counts are not given, so values of variants with three or more changes are uncertain.

B1: LINE1-mini (parent)
chain: GGCAGAGCUCAACACAGCGUGGCAAAGUGGCUGUGGCUAGACUGCC

Variants of: B1
Assay: self-cleavage, relative activity (ratio to wild type); higher = more cleavage; in vitro, sequencing; the parent is a self-cleaving ribozyme

Variant	self-cleavage
GGCAGCGCUCAACACAGCGCGGCAAAGUGGCUGUGGCGAGACUGCC [A6C U20C U38G]	0.02
GGUAGAGCUCAACACAGCGUGGCCAAGUGGAUGUGCCUAGACUGUC [C3U A24C C31A G36C C45U]	0.03
GGCAGAGCCCAACACAGCGUGGCAAAGUGGCUGUGGCUUGAGUGCC [U9C A39U C42G]	0.02
GGCAUAGCUCAGCACAGCGUGGCAAAGUGGCUGGGGCUAGACUGCC [G5U A12G U34G]	0.05
GGCAGAGCUCGACACAGCGUGGCAAAGUGGCGGUUGCUAGACUGCC [A11G U32G G35U]	0.02
GGCAGAGCUCAACACAGCGUGGCAAUGUGGCUUUGGCUAGACUGAC [A26U G33U C45A]	0.04
GGCAGAGCUCGACACAGCGAGGCAAAGUGGCUGUGGCGAGACUGCC [A11G U20A U38G]	0.03
GGCAGUGCUCAACACAGCAUGGCAAAGUGGCUGUGACUAGACUGCC [A6U G19A G36A]	0.36
GGAAGAGCUCAACACAUCGUGGCAAAGUGUCUCUGGCUAGACUGCU [C3A G17U G30U G33C C46U]	0.11
GGCAGUGCUCAACACAGCGUGGCAAAGUGGCUGUGACUAGACUGCG [A6U G36A C46G]	0.53
GUAAGAGCACAACACAGCGUGGCAAAGUGGCUGUCGCUUGGCUGCC [G2U C3A U9A G35C A39U A41G]	0.09
AGCAGAGCUCAACACAGCGUGGCAAAGUGGUUGUGGCUAGACUACC [G1A C31U G44A]	0.09
GGCAGGGCUCAACACAGGGUGGCAAAGUGGCUGCGGCUAGACUGCC [A6G C18G U34C]	0.05
GCCAGAGCGCAACAGAGCGUGGCAAAGUGGCCGUGGCUAGACUGCC [G2C U9G C15G U32C]	0.01
GGCUGAACUCAACACAGCGUGGAAAAGUGGCUGUGGCUAGACUGCC [A4U G7A C23A]	0.14
GGCGUAGCUCAACACAGCGUGGCAAAGUGGCGGUGGCUAGACUGCA [A4G G5U U32G C46A]	0.02
GGCAGAGCUCAACCCAGCGUGGCAAAGUGGGUAUGGCUAGACUGCC [A14C C31G G33A]	0.04
GGCAGAGCUCAACACAGCGUGGCAAAGUGGCUCAGGCCAGACUGCC [G33C U34A U38C]	0.19
GGCACAGUUCAACACAGCGUGAAAAAGUGGCUGUGGCUAGACUGCC [G5C C8U G22A C23A]	0.06

Variant	self-cleavage
AGCAUAGCUCAACACAGCGAGGCGUAGUGGCUGCGGCUAGAUUGCC [G1A G5U U20A A24G A25U U34C C42U]	0
GACAGAGCUCAAGCCAGCGUGGCAAAGUGGCUGUGGCUAGACUGCC [G2A C13G A14C]	0.15
UGCAGAGCUCAACACUGCGUGGCAAAGUGGCUGUAGCUAGACUGCC [G1U A16U G35A]	0.05
GGCAGAGCUCAACACAGCGUGGCAAAGUGGCGGUUGCUAGUUUGCC [U32G G35U A41U C42U]	0.05
GGCAGAGCCCAAUACAGCGUGGCAAAGUGGCUGUGGCUAGGCUGCC [U9C C13U A41G]	0.02
GGUAGAGCUCAAAACAGCGUGGCAAAGUGGCUGGGGCUAGACUGCC [C3U C13A U34G]	0.04
GGCAUACCUCAACUCAGCGUGGCAAUGUGUCUAUGGCUAGACUGCC [G5U G7C A14U A26U G30U G33A]	0.07
GGCAGAGCUCAACACAGCGUGGCAAAGUGGCUGUGGCUGAACUCCC [A39G G40A G44C]	0.04
GCCUGAGCUAAACAUAGCGUGGCAAAGUGGCUGUGGCUCGACUGCC [G2C A4U C10A C15U A39C]	0.04
GGCAGAGCUCAACACAGCGUGACAACAUGGCUGUGGCUAGACUGCC [G22A A26C G27A]	0.29
GGCAGAGCUCAACACAGCGUGGCAUAGUGGCUAUGGGUAGACUGCC [A25U G33A C37G]	0.03
GACAGAGCUCAACACGGCGUGGCAAAGUAGCUGUGGCUAGACUGCC [G2A A16G G29A]	0.82
GGCAGAGCUCAAGACAGCGUCGCAAAGUGGCUGUUGCUAGACUGCC [C13G G21C G35U]	1.81
GGUAGAGCUGAACACAGCGUGGCAUAGAGGCUGUGGCUAGACUGUC [C3U C10G A25U U28A C45U]	0.04
GGCAGAGCUCAAAACAGCGUGGCAAGGUGUCUGUGGCUAGACUGCC [C13A A26G G30U]	0.01
UCCAGAGCUCAACUCAGCGUGUCAAAGUGGCUGUGGCGAGACAGCC [G1U G2C A14U G22U U38G U43A]	0.02
GGCCUAGCGCAACACAGCGUGGCUAUGUGGCUGUGGCUAGAGUGCC [A4C G5U U9G A24U A26U C42G]	0.03
GGCACAGCUCAACACCGCGUGGCAAAGUGGCUGUGGCUAUACUGCC [G5C A16C G40U]	0.06
GGCAUAGCUCAACACAGCGUGGCAAAGUUGCUGUUGCUAGACUGAC [G5U G29U G35U C45A]	0.06

Variant	self-cleavage
GGCAGAGCUCAACAGGGCGUGGCAAACUGGCUGUGGCUAGACUGCC [C15G A16G G27C]	0.01
GGUAGAGCUCAACACAGCGUGGCAAAGUAGCUGUGGCUAGACCGCC [C3U G29A U43C]	0.07
GGCAGAACUCAACACAGCGUGGCAAAGUGUGUGUGGCUAGACAGCC [G7A G30U C31G U43A]	0.11
GGCUGAGCUCAACACAACGUGGAAAAGUGGCUGCGGCUAGACUGCC [A4U G17A C23A U34C]	0.02
GGGAGAGCUCAACACACCCUGGCAAAGUGGCUGUUGCUAGACUGCC [C3G G17C G19C G35U]	0.1
GGCAGAGCUCAACCCAGCGUGUCAAACUGGCUGUGUCUAGACUGCC [A14C G22U G27C G36U]	0.03
CGCAGCGCUCAACACACCGUGGCAAAGUGGCUGUUGCUAGACUGCC [G1C A6C G17C G35U]	0.03
GGCAGAGCUCAAUACAGCGAGGCAAAGUGGCUGUGGCUUGACUGCC [C13U U20A A39U]	0.15
CGUAGAGCUCAACACAGCGUAGCAAAGUUGUUGUGGCUAGACUGCC [G1C C3U G21A G29U C31U]	0
GGGUGAGCUCAACACAGCGUGGCAAGGUGGCUCUGGCUAGACUGCA [C3G A4U A26G G33C C46A]	0.13
GGCAUAGCUCAACACAGCGCGGCAAAGUGGCUGUGGCUUGACUGCC [G5U U20C A39U]	0.03
UGCAGAGUUCAACACAGCGUGGAAAAGUGGCUGUGGCGAUACUGCC [G1U C8U C23A U38G G40U]	0.01
GGAAGAGCUCAACACUGCGUGGCAAAGUGGCUUUGGCUAGACUGCC [C3A A16U G33U]	0.29
GGCAUAGCUCCACACAGCGUGGCCAACUGGCUGUGGUUAGACUGCC [G5U A11C A24C G27C C37U]	0.01
GACAGAUGUCAACACAGCGUGGCAAAGUGGCUGUGACUAUACUGCA [G2A G7U C8G G36A G40U C46A]	0.03
GGCAGAGCUCGACACAGCGUGGCAAAGUGGUUGUGUCUAGACUGCC [A11G C31U G36U]	0.03
GGCAGAGCUCAACACAACGUGGCAAAGUGGCUGUGGUUAAACUGCC [G17A C37U G40A]	0.04
GGCGGAGCUCAACACAGCGUGGCAAAGUGGCUGUUGCUAGACUCCC [A4G G35U G44C]	0.11
